# In PMC4336329 (PLoS ONE, 2015):
# Screen size: about 310,000 compounds; about 2,200 (0.71%) showed an effect of 50% or more. The effect is printed as a negative number. This is one part of the list.
# Target: human ether-à-go-go-related gene (hERG) potassium channel (human, UniProt Q12809)
# Assay: primary screen, population patch clamp on CHO cells stably expressing hERG
# Chain of human ether-à-go-go-related gene (hERG) potassium channel (Q12809 whole entry, looked up): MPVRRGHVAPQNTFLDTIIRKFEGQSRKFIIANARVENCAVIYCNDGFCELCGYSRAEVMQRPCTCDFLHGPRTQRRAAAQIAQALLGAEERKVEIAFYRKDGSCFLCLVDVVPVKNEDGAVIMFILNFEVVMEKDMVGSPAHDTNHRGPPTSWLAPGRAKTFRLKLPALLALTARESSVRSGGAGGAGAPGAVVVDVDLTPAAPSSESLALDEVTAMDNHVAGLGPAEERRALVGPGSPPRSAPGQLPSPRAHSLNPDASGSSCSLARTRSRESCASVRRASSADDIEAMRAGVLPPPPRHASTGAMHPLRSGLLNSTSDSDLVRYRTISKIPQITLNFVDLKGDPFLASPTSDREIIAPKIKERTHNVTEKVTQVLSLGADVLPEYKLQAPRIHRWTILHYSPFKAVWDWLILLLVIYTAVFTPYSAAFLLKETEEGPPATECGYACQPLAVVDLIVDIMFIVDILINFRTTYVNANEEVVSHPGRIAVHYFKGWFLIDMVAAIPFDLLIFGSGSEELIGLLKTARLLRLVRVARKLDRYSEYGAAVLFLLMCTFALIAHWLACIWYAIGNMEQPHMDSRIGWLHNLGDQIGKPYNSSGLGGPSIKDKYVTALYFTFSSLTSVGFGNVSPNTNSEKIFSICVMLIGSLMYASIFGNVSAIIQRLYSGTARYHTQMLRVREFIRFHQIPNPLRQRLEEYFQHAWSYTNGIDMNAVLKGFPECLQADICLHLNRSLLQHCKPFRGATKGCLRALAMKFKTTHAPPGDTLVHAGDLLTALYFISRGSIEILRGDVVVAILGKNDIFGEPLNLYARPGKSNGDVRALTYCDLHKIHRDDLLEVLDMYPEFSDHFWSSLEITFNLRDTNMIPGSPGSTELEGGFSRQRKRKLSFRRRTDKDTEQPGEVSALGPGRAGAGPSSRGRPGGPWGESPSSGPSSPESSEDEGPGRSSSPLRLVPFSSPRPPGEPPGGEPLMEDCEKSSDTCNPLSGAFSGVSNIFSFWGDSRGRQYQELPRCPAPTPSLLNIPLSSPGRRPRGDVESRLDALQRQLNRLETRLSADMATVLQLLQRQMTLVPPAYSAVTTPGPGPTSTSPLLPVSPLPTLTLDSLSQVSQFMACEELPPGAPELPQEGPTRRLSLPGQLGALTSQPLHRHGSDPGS
row,Structure (SMILES),"hERG current change (%, negative = inhibition) at 1uM"
1,Cc1ccc(N2CC(C(=O)Nc3nnc(SCc4cccnc4)s3)CC2=O)cc1 (centres unmarked),13.1%
2,CC(=O)c1ccc(S(=O)(=O)NC2CC2)cc1,8.28%
3,COc1ccc(-n2nc(C(=O)NCC(=O)N3CCN(C)CC3)c3ccccc3c2=O)cc1,15.1%
4,Cc1ccc(OC(=O)c2ccc3nc(C)sc3c2)cc1,10%
5,CC1(C)Cc2c(sc(NC(=O)COc3cccc4ccccc34)c2C#N)C(C)(C)N1,9.09%
6,CCCCOc1ccc(C(O)(CCN2CCOCC2)c2ccccc2)cc1.Cl (centres unmarked),3.49%
7,Cl.O=C(/C=C/c1cn(-c2ccccc2)nc1-c1cccs1)NCCN1CCOCC1,-1.11%
8,O=C(N/N=C/c1nn(-c2ccccc2)cc1-c1ccccc1)c1ccncc1,-1.14%
9,CCOC(=O)c1cnc2c(C(F)(F)F)cccc2c1N1CCN(C)CC1.Cl,7.89%
10,CC(/C=N/NC(=O)c1ccccc1F)=C\c1ccccc1,10.4%
11,O=S(=O)(NC1CCCC1)c1cccc(S(=O)(=O)N2CCC(n3nnc4ccccc43)CC2)c1,5.8%
12,Cc1ccc(NC(=O)c2ccc(F)cc2F)cc1NS(C)(=O)=O,12.3%
13,Cc1cccc(C)c1NS(=O)(=O)c1ccc(NC(=O)c2ccc(Cl)c([N+](=O)[O-])c2)cc1,-5%
14,CN(C)S(=O)(=O)c1cccc(NC(=O)CN2C(=O)NC3(CCc4ccccc4C3)C2=O)c1 (centres unmarked),15.3%
15,COc1cc(OC)cc(C(=O)N=c2sc3ccccc3n2C)c1,18.5%
16,COCCn1c(C)cc(C(=O)CSc2nnnn2C2CCCC2)c1C,-58.4%
17,Cc1cc(-c2ccc(C)c(S(=O)(=O)NC(C)Cc3ccco3)c2)on1 (centres unmarked),1.07%
18,COc1ccc(C(=O)C2CCCN(Cc3cccn3-c3ccc(Cl)cn3)C2)c(OC)c1 (centres unmarked),-45.8%
19,O=C(COC(=O)c1cc([N+](=O)[O-])ccc1N1CCOCC1)Nc1cccc(F)c1,0.575%
20,CC1=NN(C(=O)Cn2ccc([N+](=O)[O-])n2)C(O)(C(F)(F)F)C1 (centres unmarked),9.1%
21,COc1ccc(Cc2nc3ccc(S(N)(=O)=O)cc3[nH]2)cc1OC,-0.589%
22,OC1(c2ccccc2)CN(c2ccccc2)C2=[N+]1CCS2.[Br-] (centres unmarked),11.6%

row,Structure (SMILES),"hERG current change (%, negative = inhibition) at 1uM"
1,Cc1ccc(C2(C)NC(=O)N(CC(=O)Nc3ccc(Cl)c(S(=O)(=O)N4CCCCC4)c3)C2=O)cc1 (centres unmarked),6.09%
2,CCC(C)NC(=O)CC1Oc2ccc(C)cc2NC1=O (centres unmarked),6.79%
3,CC(=O)Nc1ccc(-c2csc(Nc3ccc(S(N)(=O)=O)cc3)n2)cc1,2.86%
4,CC1CC(C)CN(C(=O)CSc2nc(Cc3cccs3)nc3ccccc23)C1 (centres unmarked),5.63%
5,CCCCCCCNC(=O)C1(CC2CC(c3ccccc3)=NO2)CCN(C(=O)c2ccccc2)CC1 (centres unmarked),-47.1%
6,O=C(CCn1ccc2cc(S(=O)(=O)N3CCCC3)ccc21)NCc1cccc(F)c1,16.4%
7,CCOC(=O)c1sc(NC(=O)C2CSC3(C)CCC(=O)N23)nc1C (centres unmarked),-13.9%
8,NC(=O)c1sc2nc3c(cc2c1N)CCC3,6.2%
9,Cc1cc(C)n2nc(SCC(=O)N(C)C)nc2n1,8.54%
10,Nc1ccc(C23CC4CC(CC(C4)C2)C3)cc1,14.4%
11,COc1ccc(NC(=O)CCCC2=NS(=O)(=O)c3ccccc3N2)cc1,12.5%
12,COC(=O)C1=C(c2ccccc2)C[C@@H]2CC[C@H]1N2C(=O)N1CCCCC1,-0.805%
13,O=C(Nc1cccnc1)c1cc2c(s1)-c1ccccc1OC2,6%
14,Cc1ccc(S(=O)(=O)N2CCCCC2)cc1NC(=O)c1cccs1,-6.04%
15,CCOc1ccc(S(=O)(=O)N2CCOCC2)cc1NC(=O)c1ccccc1F,19.4%
16,COc1ccc(Cc2c(Cl)ncnc2Cl)cc1,6.38%
17,COc1cccc(CN2CC(C(=O)N3CCN(c4ccc(Cl)cc4)CC3)CCC2=O)c1 (centres unmarked),-53.3%
18,CCC(C)(C)n1nnnc1C(c1ccc(O)cc1)N1CCc2ccccc2C1.Cl (centres unmarked),4.58%
19,COc1ccccc1C(=O)NCCC(=O)NCC(c1ccccc1OC)N1CCCC1 (centres unmarked),24.1%
20,CCOC(=O)c1[nH]c2c(c1-c1ccccc1)C(=O)CC(c1ccc(OCC)cc1)C2 (centres unmarked),6.72%
21,COC(=O)CN(c1ccc2c(c1)OCO2)S(C)(=O)=O,9.42%
22,OC(CCNCCc1c[nH]c2ccccc12)C(F)(F)F (centres unmarked),7.35%
